Data from a collection of fitness landscapes (doi:10.1016/j.celrep.2020.107928).
The full ranking holds about 81,000 sequences; the median of “one-hybrid fitness for binding parS DNA” is about -0.17, and the highest 2% start at about 0.51. The list shows a part of the results.

B1: Caulobacter ParB omega fusion; a variant is named by its letters at X, in order, B8GW30 (parent)
chain: MESVVVGEPGMSEGRRGLGRGLSALLGEVDAAPAQAPGEQLGGSREAPIEILQRNPDQPRRTFREEDLEDLSNSIREKGVLQPILVRPSPDTAGEYQIVAGERAWRAAQRAGLKTVPIMVRELDDLAVLEIGIIENVQRADLNVLEEALSYKVLMEKFERTQENIAQTIGKSXSHVANXMRLLXLPDEVQSYLVSGELTAXHARAIAAAADPVALAKQIIEGGLSVRETEALARKAPNLSAGKSKGGRPPRVKDTDTQALESDLSSVLGLDVSIDHRGSTGTLTITYATLEQLDDLCNRLTRGI

Variants of: B1
Experiment: one-hybrid fitness for binding parS DNA (scaled: cognate 1, non-cognate 0); higher = stronger binding
Conditions: with parS DNA site
How it was run: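 Values were rescaled so that cognate is 1 and non-cognate is 0. Each is a fitness, the log change in a variant's read ratio to wild type from Illumina reads of plasmids before and after selection, with three replicate libraries pooled and variants under 10 reads dropped. Selection of the Caulobacter ParB libraries, four specificity codons randomised, used E. coli USO with a HIS3 reporter, site 19 bp from the promoter, on M9-minus-histidine with 0.1 mM IPTG and 5 mM 3-AT for 48 hours at 37°C.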

one-hybrid fitness for binding parS DNA, 0.211:
RQCF
RTPN
RWRW

one-hybrid fitness for binding parS DNA, 1:
RFCS

one-hybrid fitness for binding parS DNA, 0.984:
RSQS

one-hybrid fitness for binding parS DNA, ≤ 0.2:
PYPF
ERVT
FASS
FEFD
SESY
QRGY
FINL
GAPR
VSVA
VFGK
STIF
FLTP
DAPY
VGQR
IPGS
VVCC
MANG
FTRG
WGTC
FRKM
RVGH
AYFQ
WTLT
IQIR
RVGK
WSLC
CFPC
SIWR
TERV
SKHN
GQIC
SNYP
VFRT
HVTW
PRYG
PQWT
GKRG
TGWC
MGAT
QQSK
YNVL
MNLQ
MART
QLYF
LLKS
ASDL
KDIG
ALVN
QWLH
LTYT
QMPA
ENTW
HYYI
FKGR
LANA
NDSW
GCDL
TLTT
GPTQ
THAT
THPL
DNLS
GMVT
PRAK
AEVS
LSIV
LFTS
WWDG
TRNN
TQPC
ISLL
YNLH
AAIC
QNEL
EVIS
LATQ
SMFR
PFQW
GSDV
RSII
VFDG
TWNE
TCDC
KRLG
LWNA
VNTF
FGNI
ACMF
HNNS
DQLR
VWAT
AMEL
FFST
AQTY
STAW
FGAI
PDCG
QAFI
QPTC
MSWV
EALR
ELTE
VSEV
MIFR
IGQR
FGRD
YTHM
TAIW
HSTM
LKKI
EMNS
LWHC
QKMT
SVAN
AKVT
VQGW
LQYT
MPNS
KYSW
INNG
KVYG
KSQT
QHWG
HKIG
SCAG
DTLY
YHRL
KWTN
DTDY
VALR
FGTL
CAWS
MTWT
HTCR
TKTS
DPLY
PVYG
KCAC
DVVR
WFST
RDYE
FEVF
CNLS
DKKT
TQEV
HPQI
GMQC
HKDC
ERNY
RHVL
GAIA
HRHH
ANNF
IDEV
QFSS
SEGN
FRVR
PHEC
QNYA
RVGR
PWMF
AIHN
SGPL
TPTQ
MAIR
TAHF
RQTK
QPPV
PPHK
TINI
PRPQ
WYSS
RDPG
SFGT
PMWT
AHPW
PLDN
TRIH
GHMG
LLMW
TDHV
EPHT
QYLN
MNHT
QPPS
MSQV
PKLG
STMR
ECLC
ASCA
ALRT
GIVS
PYRI
TQRE
NREA
PLAY
ELFR
PPVR
IRFN
RSID
WGPD
MPDS
LVQR
NMGG
KVEI
QCQL
RIID
CKPT
ICPR
KEMT
QNID
DVTY
ASQH
PWQR
MVRT
GSFP
LVVG
WMIG
GHVL
HMLT
PIKM
MHRV
QPAY
QKMC
VFYR
FEYS
MIAS
TAAN
FRFR
SCCV
MQKR
YMQS
HPLW
AYAT
PFGW
DMQT
QAKG
DLPH
INST
FNAI
WEAC
LVVM
HLIR
NSGK
GTFD
RLVV
PYFT
SCLN
FFQG
LLTT
AGHC
DAMT
NHNS
VVHE
RKCQ
APLW
LSQV
AIVC
CVSW
AWWW
DPLL
CAKW
TLSG
DSSP
VVDG
HTFT
RFWL
VYSH
PSGD
KMAT
PFAC
SPMW
TVAF
YCQA
VLSS
VPKG
STIA
NMMY
TTKD
VCQW
TMPV
RRVQ
VIET
DSEV
VGPW
WCGR
SPSH
LFHS
MNMR

one-hybrid fitness for binding parS DNA, 0.392:
RVRM

one-hybrid fitness for binding parS DNA, 0.911:
RMNS

one-hybrid fitness for binding parS DNA, 0.303:
RVFF

one-hybrid fitness for binding parS DNA, 0.223:
FGGP

one-hybrid fitness for binding parS DNA, 0.412:
RCEN

one-hybrid fitness for binding parS DNA, 0.975:
RYNG

one-hybrid fitness for binding parS DNA, 0.912:
RHSS

one-hybrid fitness for binding parS DNA, 0.961:
RWKS

one-hybrid fitness for binding parS DNA, 0.515:
RKEA

one-hybrid fitness for binding parS DNA, 0.202:
RHAH
RAVH

one-hybrid fitness for binding parS DNA, 0.273:
EKEY
